Experimental data as given in PubChem BioAssay AID651820 (National Center for Advancing Translational Sciences (NCATS), 2012).
Hit rate of the full screen: of about 340,000 compounds, about 12,000 (3.5%) were called active. Inconclusive results, whose numbers are uncertain, are shown with a selection of clear calls. Calls come from the whole dose curve; as a rule, active = well fitted inhibition curve with a large enough effect; inconclusive = small, poorly fitted or top-dose-only effect, or another doubt; inactive = no such curve, though single readings can be large or run the other way. Potencies of inconclusive entries are left out as doubtful fits.
% is set by controls: 0 for no effect and ±100 for the full control effect; potency is the fitted concentration of half-maximal effect; tags give direction and shape of the fitted curve.

Test: qHTS Assay for Inhibitors of Hepatitis C Virus (HCV)
Conditions: Huh7.5.1 HCVcc-Cre (HCVcc is cell-culture hepatitis C virus) infection, luciferase reporter, 44 h; activity change, negative = inhibition: at 41.8 µM (top of the series) unless noted
Summary of the method: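 Seed cells (1,000/well) for 4 h; treat with compound and infect with HCVcc-Cre, moi about 0.5. Incubate 44 h, then detect luciferase activity.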
With `C#CCn1c(=NC(=O)c2cc(-c3cccs3)nc3ccccc23)sc2cc(S(N)(=O)=O)ccc21` the Potency was “inactive”. With `COc1ccc(-c2csc3ncnc(N4CCN(S(=O)(=O)c5ccc(C)cc5)CC4)c23)cc1` the Potency was active: 11.2 µM. For `Cc1ccccc1-c1nc(CS(=O)(=O)CC(=O)NC2CCCC2)c(C)o1`, the Potency was inconclusive [inhibitor, single point]. With `CSc1nc2nccc(-c3ccc(Oc4ccccc4)cc3)n2n1` the Potency was active: 11.2 µM. For `Cc1ccc(NC(=O)c2cc(NC(=O)C3CC=CCC3C(=O)O)ccc2N2CCOCC2)cc1` (stereo unspecified), the Potency was “inactive”. With `C#CCOc1ccc2c3c(c(=O)oc2c1)CCCC3` the Potency was “inactive”. With `CCOC(=O)Nc1ccc2c(CN3C(=O)NC(CC)(CC)C3=O)cc(=O)oc2c1` the Potency was inconclusive [inhibitor, single point]. In the case of `Cc1ccccc1CN(CC(=O)Nc1cccc([N+](=O)[O-])c1)S(=O)(=O)c1ccc(Cl)cc1`, the Potency is reported as inconclusive [inhibitor, single point]. In the case of `CCN1C[C@@H]2[C@@H]3C(=O)N(Cc4ccccc4)C(=O)[C@@H]3[C@](CC)(C1=O)N2C(=O)c1ccc(C(F)(F)F)cc1`, the Potency is reported as inconclusive [inhibitor, single point]. In the case of `CCOC(=O)c1oc2nc(C(C)C)c3c(c2c1N)CC(C)(C)OC3`, the Potency is reported as inconclusive [inhibitor, partial curve]. With `C=CCSc1nc2c(C(=O)OCC)nnn2c2ccccc12` the Potency was inconclusive [inhibitor, partial curve]. With `O=C(N/C(=C\c1ccco1)C(=O)N1CCOCC1)c1ccc([N+](=O)[O-])cc1` the Potency was “inactive”. For `ON=C1c2ccccc2-c2ccc(O)cc21`, the Potency was inconclusive [inhibitor, partial curve]. With `COc1ccc(/C=C/C(=O)N(Cc2cccs2)C2CCS(=O)(=O)C2)cc1` (stereo unspecified) the Potency was inconclusive [inhibitor, full curve]. In the case of `Cc1cccc(C(=O)CC(=O)c2cc(Cl)ccc2O)c1`, the Potency is reported as inconclusive [inhibitor, single point]. With `CNC[C@H](CC1CCCCC1)NC[C@H](Cc1ccccc1)NCCC12CC3CC(CC(C3)C1)C2` the activity change, negative = inhibition was inactive: 1.1% [at 8.37 µM]. With `C=C1C[C@]2(O)[C@@]3(C)CCC(=O)C(C)(C)C3=C(O)C(=O)[C@@]2(C)[C@@H]2C(=O)O[C@@](C)(C(=O)OC)C(=O)[C@@]12C` the Potency was inconclusive [inhibitor, full curve, poor fit]. For `C1CCC(n2nnnc2CN2CCN(C3CCCC3)CC2)CC1`, the Potency was inconclusive [inhibitor, single point]. With `Brc1ccc(Cn2c(-c3cncs3)nc3ccccc32)cc1` the Potency was inconclusive [inhibitor, single point]. For `Cc1cc(/C=C(\C#N)C(=O)Nc2ccccc2)c(C)n1-c1cccnc1`, the Potency was inconclusive [inhibitor, full curve, poor fit]. In the case of `CCOc1cccc(-c2c(C(=O)N/N=C/c3ccsc3)nnn2-c2nonc2N)c1`, the Potency is reported as “inactive”. For `COc1cc(NC(=O)C2CCCCC2)c2ncccc2c1`, the Potency was active: 10 µM. In the case of `O=C(Cc1ccc(F)cc1)Nc1c(C(=O)N2CCN(c3ncccn3)CC2)oc2ccccc12`, the Potency is reported as “inactive”. For `CC(C)[C@@H](C(=O)N1CCN(Cc2ccc3c(c2)OCO3)CC1)n1nnc2ccccc2c1=O`, the Potency was inconclusive [inhibitor, partial curve]. In the case of `O=C(N/N=C/c1ccc(N2CCOCC2)cc1)c1ccccc1OCCOc1ccccc1`, the Potency is reported as active: 8.91 µM. For `CCOC(=O)c1nc(-c2ccccc2)oc1N1CCOCC1`, the Potency was “inactive”. With `Cc1ccc(/C=C2\SC(=S)N(CCC(=O)NNC(=O)c3ccc(O)cc3)C2=O)cc1` the Potency was inconclusive [inhibitor, partial curve]. For `CCn1cc(Br)c(C(=O)Nc2cccc(SC)c2)n1`, the Potency was inconclusive [inhibitor, partial curve]. With `O=C(COc1ccc(F)cc1Br)NCC1(N2CCOCC2)CCCCC1` the Potency was inconclusive [inhibitor, single point]. In the case of `O=C(CCc1nc2ccccc2c(=O)[nH]1)NCCN1C(=O)S/C(=C\c2ccc(OC(F)F)cc2)C1=O`, the Potency is reported as inconclusive [inhibitor, full curve]. In the case of `O=C(CSc1nnc(Nc2ccccc2)s1)Nc1cccc(S(=O)(=O)N2CCCCC2)c1`, the Potency is reported as inconclusive [inhibitor, single point]. With `C=C(C)COc1ccc(-c2ncncc2-c2ccc(OC)cc2)c(O)c1` the Potency was inconclusive [inhibitor, partial curve]. With `CC(C)(C)c1ccc(C(=O)NCC(=O)N/N=C/c2cccs2)cc1` the Potency was inconclusive [inhibitor, single point]. For `CCCN1CCC(NC(=O)c2cccc(Oc3ccccc3)c2)CC1`, the Potency was inconclusive [inhibitor, single point]. For `O=C(Nc1ccccc1)N1CCC(c2nc(-c3ccc(S(=O)(=O)N4CCOCC4)cc3)no2)CC1`, the Potency was active: 10 µM. With `CCN(CC)C(=O)[C@H]1CC(CC(=O)NCc2cccc(C(F)(F)F)c2)C(=O)N2CCc3c([nH]c4ccccc34)[C@]12C` (stereo partly specified) the Potency was active: 12.6 µM. For `CNS(=O)(=O)c1cccc(C(=O)OCc2cc(=O)oc3c(C)c(O)ccc23)c1`, the Potency was inconclusive [inhibitor, partial curve]. For `COc1cc(NC(=O)C2CC(c3c(F)cccc3Cl)=NO2)c(OC)cc1Cl` (stereo unspecified), the Potency was inconclusive [inhibitor, partial curve, poor fit]. For `CCS(=O)(=O)N1CCC(C(=O)Nc2cc(Cl)ccc2O)CC1`, the Potency was “inactive”. With `CN(CC(=O)Nc1ccccc1Cl)C(=O)COC(=O)c1cnccn1` the Potency was “inactive”. For `COc1ccc(CCC(=O)Nc2cc3c4c(c2)CC(=O)N4CCC3)cc1`, the Potency was inconclusive [inhibitor, single point]. In the case of `CCN(CC)S(=O)(=O)c1ccc(N2CCN(c3ccccc3O)CC2)nc1`, the Potency is reported as active: 11.2 µM. In the case of `O=C(O)CN(c1ccc2c(c1)OCCO2)S(=O)(=O)c1ccccc1`, the Potency is reported as “inactive”. In the case of `CCCCN(C(=O)CCSc1ccc(F)cc1)c1c(N)n(Cc2ccccc2)c(=O)[nH]c1=O`, the Potency is reported as inconclusive [inhibitor, partial curve]. In the case of `COc1ccc2cc(CN(Cc3ccco3)C(=S)NCC3CCCO3)c(=O)[nH]c2c1` (stereo unspecified), the Potency is reported as “inactive”. In the case of `O=C(COc1ccccc1Cl)N1CCc2ccccc21`, the Potency is reported as “inactive”. With `COc1cccc(C(=O)NNc2c3ccccc3nc3ccccc23)c1` the Potency was inconclusive [inhibitor, partial curve, poor fit]. In the case of `C=CCNC(=O)c1ccc(-c2nc(-c3ccc(Cl)c(Cl)c3)cs2)cc1`, the Potency is reported as inconclusive [inhibitor, single point]. In the case of `Cc1[nH]n(-c2ccccc2)c(=O)c1C=NCCc1ccccc1`, the Potency is reported as “inactive”. In the case of `CC(=O)c1c(C)[nH]c(C(=O)OCC(=O)N2CCN(S(=O)(=O)c3ccc(C)cc3)CC2)c1C`, the Potency is reported as inconclusive [inhibitor, partial curve]. With `CCOC(=O)c1c(NC(=O)COC(=O)c2ccc(C)s2)sc2c1CC(C)(C)NC2(C)C` the Potency was inconclusive [inhibitor, single point]. With `CCCNC(=O)CSCc1nc(-c2ccc(SC)cc2)oc1C` the Potency was inconclusive [inhibitor, single point]. For `CCOC(=O)c1sc(NC(=O)C2CCC2)cc1C`, the Potency was inconclusive [inhibitor, single point]. In the case of `N#Cc1cc([N+](=O)[O-])ccc1Oc1cccc(/C=N/NC(=O)c2ccc(Cl)cc2)c1`, the Potency is reported as inconclusive [inhibitor, partial curve, poor fit]. With `Cc1ccc(C)c2c(N)c3c(nc12)CCCCC3` (tested in a mixture with another compound) the Potency was inconclusive [inhibitor, single point]. With `CCC(C)Sc1ccc([C@@H]2[C@@H]3C(=O)N(CC)C(=O)[C@@H]3[C@]3(C(=O)OC)CCCCN23)cc1OC` (stereo partly specified) the Potency was active: 11.2 µM. For `CCN(CC)S(=O)(=O)c1cccc(NC(=O)COc2ncnc3sccc23)c1`, the Potency was inconclusive [inhibitor, single point]. With `C#CCOCCOCCOCCNc1nc(N2CCN(C(=O)[C@H](C)n3cc(CCC(=O)O)nn3)CC2)nc(N2CCN(C(=O)[C@H](Cc3ccc(O)cc3)n3cc(CCO)nn3)CC2)n1` the Potency was inconclusive [inhibitor, single point]. For `C#CC[N+](C)(C)CCCCCCCCCC`, the Potency was inconclusive [inhibitor, partial curve]. With `CSc1nc(C)cc(Oc2ccc(=O)[nH]n2)n1` the Potency was “inactive”. With `O=C(NN=C1CCCC1)c1ccc(O)cc1` the Potency was “inactive”. In the case of `NS(=O)(=O)c1ccc(CNC(=O)c2cc(-c3cccs3)nc3ccccc23)cc1`, the Potency is reported as “inactive”. With `CC1CCCN(C(=O)CCS(=O)(=O)c2ccc3c(c2)NC(=O)C(C)S3)C1` (stereo unspecified) the Potency was inconclusive [inhibitor, single point]. With `COc1ccc(C2CCCN2C(=S)Nc2cccc(Cl)c2C)cc1OC` (stereo unspecified) the Potency was inconclusive [inhibitor, partial curve]. For `O=S(=O)(c1ccc(Br)s1)N1CCN(c2ccnc3cc(Cl)ccc23)CC1`, the activity change, negative = inhibition was inconclusive: -57.7% [inhibitor]. For `O=C(N/N=C/c1ccc(F)cc1)c1ccc(-n2cnnn2)cc1`, the Potency was inconclusive [inhibitor, single point].
